# Measured values taken from PubChem BioAssay AID1347417 (National Center for Advancing Translational Sciences (NCATS), 2020).
# The whole screen tested about 120,000 compounds, of which about 5,300 (4.4%) were called active. Inconclusive means that the source gave no clear call. Such entries were picked first, then a sample of the others. Calls follow the shape of the dose curve; as a rule, active = well fitted inhibition curve with a large enough effect; inconclusive = small, poorly fitted or top-dose-only effect; inactive = no such curve, though single readings can be large or run the other way. Potencies of inconclusive entries are doubtful fits and often do not repeat.
# Assay: qHTS Primary assay for Inhibitors of Plasmodium falciparum Dd2 growth in vitro; also: nearly all actives have a fitted effect of over 65% in size;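 as to activity, negative = inhibition: plate controls were DMSO vehicle for no effect and reference drug for full effect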
# Details: P. falciparum Dd2 growth, SYBR Green, 72 h; activity, negative = inhibition: at 28.9 µM (top of the series) unless noted; series mostly up to 28.9 µM
# Outline: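 Readout: SYBR Green fluorescence, 485 nm excitation, 535 nm emission, after ~16 h lysis at 37C. Before that, Dd2-infected red cells (2.5% hematocrit) grew 72 h with compound, 29 uM top final concentration.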
# Potency is read from the fitted curve at half-maximal effect; tags tell the direction and shape of the fitted curve.
Compound,Potency,outcome,"activity, negative = inhibition"
COc1ccccc1CNC(=O)c1cc2sccc2n1Cc1ccc(F)cc1,"inconclusive: 10 µM [inhibitor, single point]",,
CC(C)(C)C(=O)Nc1nc2c(s1)C[C@@H]1[C@](C)(CO)[C@H](O)CC[C@@]1(C)[C@@H]2CC(=O)NC1CCCC1,"inconclusive: 3.98 µM [inhibitor, full curve, poor fit]",,
CCCS(=O)(=O)c1c(S(=O)(=O)CCC)c2cc(C(C)(C)C)ccn2c1C(=O)c1ccc(OC)c(OC)c1,active: 2.82 µM,,
Cc1noc(C)c1[S+](=O)([O-])N1CCC2OCCN(Cc3ccccc3)C(=O)C2C1 (stereo not given),,inactive [at 44.1 µM],
CCOc1cc(=O)n2c(c1C(=O)Nc1ccc(F)c(F)c1)CCCC2,"inconclusive: 11.2 µM [inhibitor, partial curve, poor fit]",,
CCCN(C)C(=O)c1onc(-c2ccc(OC)cc2)c1[C@H](C)O,,,inactive: -13.8% [at 44.1 µM]
C[C@@H]1CN(C(=O)c2cccc(C#N)c2)C[C@]1(C)O,,,inactive: -3.52%
CCOCCn1ccc2c(OCC(=O)Nc3cc(C(F)(F)F)ccc3Cl)cccc2c1=O,,,inactive: 43.5%
CC(C)CNC(=O)N1CCC(c2noc(C3CC3)n2)C1 (stereo not given),,inactive [at 5.79 µM],
CCN(CC)Cc1cnc2c(C(=O)NC(C3CC3)C3CC3)cnn2c1,"inconclusive: 8.91 µM [inhibitor, partial curve]",,
Cc1ccc(CNC(=O)Nc2cccc(-c3ccc(N4CCOCC4)nn3)c2)cc1,"inconclusive: 17.8 µM [inhibitor, single point]",,
COc1ccc(-c2cc(N3CCCC(NC(=O)c4cccc(F)c4)C3)n[nH]2)cc1 (stereo not given),"inconclusive: 1.26 µM [inhibitor, partial curve]",,
COC[C@@H]1CN(S(=O)(=O)c2cc(F)cc(F)c2)C[C@H]1C(N)=O,,,inactive: -4.36%
Cc1ccc(CN2C(=O)C3(SCC(=O)N3c3ccc(C)c(C)c3)c3ccccc32)cc1 (stereo not given),"inconclusive: 7.94 µM [inhibitor, partial curve]",,
CCOC(=O)c1cccc(NC(=O)CCc2c(C)nc3c4cccnc4nn3c2C)c1,,,inconclusive: -99% [inhibitor] [at 5.79 µM]
CCOc1ccc(C2C(C(=O)Nc3ccc(C)cc3C)=C(C)Nc3c(C(=O)Nc4ccc(C)cc4)cnn32)cc1OC (stereo not given),"inconclusive: 7.94 µM [inhibitor, partial curve, poor fit]",,
C#CCNC(=O)C[C@@H]1c2nc(NC(=O)c3ccc(C(C)(C)C)cc3)sc2C[C@@H]2[C@](C)(CO)[C@H](O)CC[C@]21C,active: 3.98 µM,,
CCn1c(=O)c2c(cc(C)n2C)n(CC(=O)Nc2ccc(F)cc2F)c1=O,"inconclusive: 10 µM [inhibitor, single point]",,
CN1C(=O)CC[C@]2(C(=O)NCc3cccc(C(F)(F)F)c3)CCCC[C@@H]12,"inconclusive: 17.8 µM [inhibitor, single point]",,
CC(C)NC(=O)NC[C@H]1OC[C@@H](NCc2cccc(C#N)c2)[C@@H]1O,,,inactive: -18.4% [at 44.1 µM]
CCC1(N2CCN(C(=O)Nc3cccc(F)c3C)CC2)CCN(C(=O)C(C)C)C1 (stereo not given),"inconclusive: 12.6 µM [inhibitor, single point]",,
C=Cc1ccc(Cn2c(C(=O)O)c(CNCc3cc(OC)ccc3OC)c3ccc(C)cc32)cc1,"inconclusive: 17.8 µM [inhibitor, single point]",,

Compound,Potency,outcome,"activity, negative = inhibition"
COc1ccc([C@H]2CN(C(=O)c3ccccc3-c3nn[nH]n3)C[C@@H]2N)cc1,,,inactive: -18.6%
Cc1ccc(-n2nc(C)c3c(C)c(CCC(=O)NCc4cccc(Cl)c4)c(C)nc32)cc1C,,,inactive: -6.37%
Cc1cc(C)c(CNC(=O)c2nc(-c3cccnc3)cc3c2ccn3C(C)C)c(=O)[nH]1,"inconclusive: 7.08 µM [inhibitor, partial curve, poor fit]",,
CC(=O)c1cccc(NC(=O)c2ccc3c(c2)CCN3S(=O)(=O)c2ccccc2)c1,"inconclusive: 17.8 µM [inhibitor, single point]",,
COc1ccc(C(=O)Nc2nc3c(s2)C[C@@H]2[C@](C)(CO)[C@H](O)CC[C@@]2(C)[C@@H]3CC(=O)N2CCC(C)CC2)cc1,"inconclusive: 1.12 µM [inhibitor, partial curve, poor fit]",,
CC1=C[C@@H](CN2CCN(c3cnccn3)CC2)[C@H](C(C)C)C[C@H]1Cc1nnc(-c2ccccc2)o1,"inconclusive: 1.41 µM [inhibitor, partial curve, poor fit]",,
Cc1ccccc1-c1cc(C(=O)NCc2cnn(C)c2)c2c(c1)N(C)CCO2,,,inactive: -5.54% [at 44.1 µM]
CCn1cc(S(=O)(=O)c2ccccc2)c(=O)c2cc(F)c(N3CCCCCC3)cc21,"inconclusive: 11.2 µM [inhibitor, single point]",,
CC1CCC2(CC1)NC(=O)N(CC(=O)NC(C)C)C2=O (stereo not given),,,inactive: 14.6%
CCCCN1C(=O)[C@@H]2C[C@@H](O)CN2C2(CN(Cc3ccc(F)cc3)C2)C1=O,"inconclusive: 12.6 µM [inhibitor, single point]",,
CNC(=O)c1onc(-c2ccc(OC)cc2)c1[C@H](C)O,"inconclusive: 39.8 µM [inhibitor, single point]",,
CC(=O)N[C@H]1[C@H](O)[C@H](O)C[C@@H]1c1ccc(C(F)(F)F)cc1,,,inactive: 26.6% [at 44.1 µM]
Cc1c(C(=O)N(C)C)sc2c1c(=O)n(-c1ccc(Cl)c(Cl)c1)c(=O)n2Cc1ccc(F)cc1,"inconclusive: 17.8 µM [inhibitor, single point]",,
O=C(c1ccsc1)N1CCCC(c2nc(C3CCOCC3)no2)C1 (stereo not given),,,inactive: 61.3%
O=C(NCCc1ccccc1)C1Cn2cccc2C(=O)N1Cc1cccnc1 (stereo not given),"inconclusive: 17.8 µM [inhibitor, single point]",,
COc1ccc(S(=O)(=O)Nc2ccc(O)c(Sc3nc4ccccc4s3)c2)cc1,"inconclusive: 11.2 µM [inhibitor, partial curve, poor fit]",,
CCOc1ccccc1CNC(=O)c1cccc2c1CCN2C(=O)CC,active: 10 µM,,
C[C@@H]1CN(C(=O)c2cc(-c3ccco3)nc3c(Cl)cccc23)C[C@]1(C)O,"inconclusive: 12.6 µM [inhibitor, partial curve, poor fit]",,
C[C@@H]1CN(Cc2nc3c(n2Cc2ccccc2)C(=O)N(CC2CC2)CCN3)C[C@H](C)O1,,,inactive: -14.4% [at 44.1 µM]
O=C(NCC12CCCC=C1N(Cc1ccccc1)C(=O)CC2)C1CCC1 (stereo not given),"inconclusive: 0.794 µM [inhibitor, full curve]",,
COc1ncc(-c2cc(C(=O)NCc3c(C)cc(C)[nH]c3=O)c3c(c2)N(C(C)C)CCO3)cn1,"inconclusive: 0.0794 µM [inhibitor, full curve, poor fit]",,
COc1cc(CN2CCCCC23Cc2ccccc2CNC3=O)ccc1F (stereo not given),"inconclusive: 7.08 µM [inhibitor, partial curve, poor fit]",,

Compound,Potency,outcome,"activity, negative = inhibition"
CN(C)[S+](=O)([O-])c1ccc2c(c1)OCCN(Cc1ccc(C(F)(F)F)cc1)C2,"inconclusive: 2.82 µM [inhibitor, partial curve, poor fit]",,
O=C(Cc1ccccc1)N1Cc2ccccc2CC2(CCCN2Cc2ccncc2)C1 (stereo not given),active: 8.91 µM,,
CCc1nnc([C@@H]2CC(F)(F)CN2C(=O)COc2ccc(F)cc2)o1,,,inactive: 20.9%
CC(C)(C)n1nnnc1C1CC2(CCOCC2)C(=O)N1Cc1ccc(F)cc1Cl (stereo not given),,,inactive: -17.2%
COc1ccc(-c2nnc3ccc(Nc4cccc(OC)c4)nn23)nc1,active: 10 µM,,
Cc1ccc(C2CC(=O)N(Cc3ccccc3F)c3c2c(C)nn3-c2nc(C)cc(C)n2)cc1 (stereo not given),"inconclusive: 10 µM [inhibitor, single point]",,
Cc1ccc2c(n1)N(C)[C@H](CO)CCN(Cc1ccc(C(C)C)cc1)C2,"inconclusive: 1.78 µM [inhibitor, partial curve, poor fit]",,
O=C(NCc1ccc(F)cc1)c1nc(-c2ccc(Cl)cc2)c2ccccn12,active: 10 µM,,
CN(C)c1ccc(CN2CC[C@H](c3nc4ccccc4n3C)C2)cc1,,,inactive: -8.21% [at 44.1 µM]
COc1ccc2[nH]c3c(c2c1)CCNC31CCN(C(=O)C(C)(C)C)CC1,"inconclusive: 0.178 µM [inhibitor, full curve, poor fit]",,
CCOc1ccc(CCNC(=O)CCc2c(C)nc3c(c(C)nn3-c3ccccc3)c2C)cc1OCC,active: 7.94 µM,,
CCc1nc(CN2CC[C@@H](c3ccc4c(c3)OCO4)[C@H](O)C2)c(C)[nH]1,"inconclusive: 14.1 µM [inhibitor, partial curve, poor fit]",,
CCCCOCCCNC(=O)c1c(C)noc1-c1cc(OC)cc(OC)c1,,inactive,
O=C(CSc1ccc(-c2ccccn2)nn1)Nc1ccc(F)c(F)c1,"inconclusive: 15.8 µM [inhibitor, single point]",,
Cc1nn2c(c1-c1ccccc1Oc1ccccc1)N(Cc1ccc(C(=O)O)s1)CCC2,"inconclusive: 2.51 µM [inhibitor, partial curve, poor fit]",,
CCN1C(=O)Cc2ccccc2C1C(=O)NCc1ccc(OC)cc1 (stereo not given),,,inactive: -6.28%
CC(C)N1C[C@@H]2C[C@H]1C(=O)N(Cc1ccccc1)c1ccccc1O2,"inconclusive: 31.6 µM [inhibitor, single point]",,
CN(C[C@H]1CN2CC[C@H]1C[C@@H]2CNC(=S)NCc1ccco1)c1ccccc1,"inconclusive: 6.31 µM [inhibitor, partial curve, poor fit]",,
COc1ccc(NC(=O)c2nnn(Cc3ccccc3C)c2N)c(OC)c1,active: 1.12 µM,,
COCCNC(=O)c1c(OCC2CC2)cc(=O)n2c1CCOCC2,,,inactive: -11.8%
Cc1ccc(NC(=O)c2nc(S(C)(=O)=O)ncc2N(Cc2ccccc2)Cc2ccco2)c(C)c1,"inconclusive: 20 µM [inhibitor, single point]",,
